# This is one part of the list.
# System: PF3D7_0420300 AP2 domain 1 (GST-tagged)
# Experiment: gcPBM binding intensity (ln(normalized median fluorescence intensity)); higher = stronger DNA binding
# In short: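 DNA-binding domains from P. falciparum, fused to GST and produced in E. coli, were put on an Agilent 4 × 180k double-stranded probe array for 1 h in 1× PBS holding 1% milk, 0.2 mg/ml BSA, 0.5% salmon testes DNA and 0.03% Triton X-100. Probes were primer-extended, 36 bp long and drawn from intergenic genomic regions, with negative controls included. After Alexa488 anti-GST antibody detection and a 488 nm scan, binding intensity was set as the highest Masliner-normalised natural-log median intensity across replicate spots of either probe orientation.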
row,Sequence,gcPBM binding intensity (ln)
1,TTATTTATAAACATATGTACTAATACATGATTAACA [XGTACX_site7645],9.02
2,GACATATATATAAAATGTACATATATATTTACATAT [XGTACX_site7822],9.29
3,TGATAATAAGCATACACACACACACTAGAAAAAAAA [CACACA_site4558],10.1
4,TGTTCTTTATTTTATTGTACTTTTAAAATTCCTTTA [XGTACX_site8058],9.35
5,AATATTAAACAAAATAAATATATAAAAAATAAATAA [GTGCAC_negctrl_site93],9.33
6,AAGTTATATTTGTGTACACATAATTTTATACTAATA [CACACA_site5553],9.39
7,TATTTAATACGGACTCATAAATCTTAATAAAAAAAA [CACACA_negctrl_site434],8.9
8,ATTATGTTTCTTTTTTTTTTTAAAGGATGTCTTTTT [CACACA_negctrl_site974],9.38
9,TTTAAGCAAAAACACACACACATATATATATATATA [CACACA_site349],9.77
10,AAAAAATGATAATATACACACTTATGGGAGAGCGCA [CACACA_site5398],9.64
11,TATAAATATATATACACACACATATATATTATATAT [CACACA_site596],9.73
12,AAAAAAGAAAAAAACTGTACATGATAAATATTTATT [XGTACX_site7270],9.44
13,ACATTTTTTTTGTGAGTCTTTGCGGCATCAAAATTT [XGTACX_negctrl_site348],8.94
14,TTATGAAGCAGACATGCATGTTATGGCTTAAATAAT [TGCATGCA_site492],9.12
15,TCCCTTTGTATATATATATAAATATATATATATATA [CACACA_negctrl_site157],9.22
16,TTTATCGAATATAATAGTACATAAAAAAAAAAAAAA [XGTACX_site1734],8.98
17,AGATTATATAAAAAAGTGCATATTTTCATTTTTTTT [GTGCAC_site9448],9
18,CATTAAAATGGTAAATGTACATATCCATCTTCTCAC [XGTACX_site4636],9.11
19,AATGATATATTATAAACACACAAAGATGAATATATA [CACACA_site2818],9.64
20,AATTAAAAAAAATACACACACACATACCCATATATA [CACACA_site5767],10.2
21,TACCCTCGTATATATATACACACTAAAATACAGACA [CACACA_site4154],9.53
22,ATTCATTCATATGTTACACACACACCCACCCATAAA [CACACA_site9066],10.2

row,Sequence,gcPBM binding intensity (ln)
1,AATTTATGTTTTAAAAGTACTTTTCTAATTTATAAA [XGTACX_site1593],9.22
2,TATGTACAGACATATACACACCTCTATAATCTATAT [CACACA_site6482],9.52
3,CTAAAGTAAATTTAAGCACACACAACGAATTTTTAT [CACACA_site8599],9.72
4,CATTTTTACAACGTTGCACACTTCAAAAGGTTTACA [CACACA_site2760],9.32
5,TGTTTATACAATATTTGTACATATATTTTTATTTTT [XGTACX_site4104],9.23
6,TTTTAAATAAAAAAATTAAATTAAAATATATAAAAA [XGTACX_negctrl_site490],8.82
7,TATAAAAAAAAAAAAAGTACTTAAATATAAATAAAT [XGTACX_site5052],9.23
8,GATACTCTCTTTTAATGTACAAAATTTTAAAAATTA [XGTACX_site1781],9.08
9,GTTCCATGAGTATATACATGCATATATCTAGTTTAT [TGCATGCA_site388],9.36
10,ATATATATATATAAAAGTACTTATTTTTATTTACAT [XGTACX_site4299],9.19
11,TAAAATAAAAATTTATGTACACATAAAAAAACAAAA [XGTACX_site1112],9.33
12,GAGAGTACCTATATTGCATGCAGACTTTTTAAATAT [TGCATGCA_site564],9.38
13,TTTTTTTTTTTTTGTAGTACATTATGTATATTTTTA [XGTACX_site7810],9.23
14,TTAATAAGAGAGCAATAGGTGGACTGTTTCTTTTAT [CACACA_negctrl_site1239],9.22
15,GTTAAAATAATATGGTGTACAAATATATAAGTTCAT [XGTACX_site3262],9.46
16,ATAAGATTAAACATTGCACACAGAAATATATTTTCT [CACACA_site8743],9.53
17,CCTATATAATATATTTGTACTTAATAATTAAAGTGT [XGTACX_site5151],9.17
18,TATATATATATATATTGTACATATGTAACCTTTTAA [XGTACX_site3914],9.08
19,TTTTTTAGATTACATAAATATAAATATAAATATATA [GTGCAC_negctrl_site459],8.7
20,TCAACTATCAATATAGTGCATTTTTTTTGGAAAACC [GTGCAC_site9927],9.02
21,TATCAAAATTAGTATACACACAAAATTAATCAAATA [CACACA_site7117],9.5
22,TTTTTATAGGTAAAAACACACGCTAAAAATAATTAA [CACACA_site3731],9.13

row,Sequence,gcPBM binding intensity (ln)
1,CATTTTGTTTTAAAGTGTACATTATGTAATATAAAA [XGTACX_site647],8.99
2,ATTTATATTACCCTTGCATGTAGGTGCAATTTTTTT [TGCATGCA_site757],9.43
3,TTTATAATTTATATCACACACATATATATATAGTAA [CACACA_site8],9.46
4,AAATAAATAAATAAATAAACAAATATGTATAAATGG [XGTACX_negctrl_site153],9.48
5,AATAAATATATATTCACACACAAACATATATATATA [CACACA_site4023],9.71
6,AGGTACTTTTTTAAAACACACATATAATAAATACAC [CACACA_site4730],9.58
7,ATTGGTTCCCCTCTCTTTTCAATATATTTTTTTTTT [XGTACX_negctrl_site259],9.63
8,ATAAAGAATATAAATACACACTTAAATATAGATTAT [CACACA_site7804],9.56
9,TTCAAATGATTTATGTGTACATAAAATTATTTTTTA [XGTACX_site107],8.99
10,GATATAGGGCGTATGTTAATCGTGAAAGAGTGTCTT [GTGCAC_negctrl_site102],9.19
11,AAAAAATTAAAAATCACACATAAATATATATAAAAA [CACACA_site4192],9.48
12,TAATGAAGCTTATGCACACGTTCATTATTTATATTA [CACACA_site3219],9.34
13,ATATTACAGTACAATACATGCATATGGAAAAAAAAA [TGCATGCA_site72],9.34
14,ATAAAATTTATGACTTGTACATGTAAATAAAATATA [XGTACX_site762],9.14
15,TTTAAATATATATATTGTACAAAAAAAAATAATAAA [XGTACX_site4759],9.17
16,TGTAGAACTCAATATTGTACATTATATAAAATGGGA [XGTACX_site3857],9.23
17,ATATATATATATTGTACACACATTTATGCATATATA [CACACA_site5738],9.69
18,TTTTTTTGCATTTCATGTACATATATTGAGCTTAAA [XGTACX_site8485],9.14
19,CTTCTTGTAAAATTTGCATGTAATTAAAAGAGAATG [TGCATGCA_site484],8.94
20,TTCCCTATCTTTTCAGTGCATTTTGTTTCCTACCTT [GTGCAC_site9813],9.57
21,AATTAGATGGATAAATGTACATATGTGAATATATTT [XGTACX_site85],9.35
22,AAAAAAAAAAAAAACACACAAACATCAAATTATTAT [CACACA_site1838],9.81

row,Sequence,gcPBM binding intensity (ln)
1,GTGCCCTTTTTAATAACATGCAAATAACATATTTAT [TGCATGCA_site709],9.38
2,TTTATATTATACGCACTAATATATATATATATATAT [TGCATGCA_negctrl_site47],9.27
3,ATATAACACAAGGGCACACATATACCTTTCCTTTTT [CACACA_site412],9.52
4,ATCTTATATCGTAGAGATTTTTTTTTTTTTTCATTT [XGTACX_negctrl_site140],9.19
5,AATTTCTTCTTAGGGTGTACAATTTGACATAAGGAA [XGTACX_site1773],9.02
6,GTAATATATATTAAGTAATAGTTTATCTTAGGAAAA [TGCATGCA_negctrl_site302],9.05
7,TACTTATATTGAAATGGTACAGATAAAAAAAAAAAA [XGTACX_site1407],9.18
8,ACATTCTATCTAAGTACACACATTAATTTTTTTTTT [CACACA_site4106],9.54
9,TTTTGTAATGTGAATATTTGTATATTATTTGTATAT [CACACA_negctrl_site1677],9.4
10,AATTTACATATATATTGTACATTTATGTATATATAT [XGTACX_site4186],9.29
11,TAATATTTTTTGTGTACACATATATATATATATATA [CACACA_site5504],9.32
12,CATTTGCACCCGCACACACACATAAAAAGAAAAATA [CACACA_site4350],9.85
13,TAATTTTTTTTAATAACACACATATAAATATAAATA [CACACA_site6521],9.15
14,AACATTGATAAATATAAACACACGAAAACAGACATA [CACACA_site490],9.86
15,CATATTATTATTTTGGTGCATACTTATATATATTTT,9.45
16,GTACCTATTTCATACACACACACACCCAAACAAACA [CACACA_site976],10.3
17,GAAACAATTTGATATTGTACATAAATAAATAAAAAC [XGTACX_site8869],9.53
18,CTTGTACCTAGAAATACACACAATTCTATAACTTAT [CACACA_site7355],9.39
19,AATGTAGAAATGGGTGCACACACATATATAATATAT [CACACA_site8799],9.78
20,AATGTGTAGACACGCACACACAAAAAAATATATATA [CACACA_site5595],9.61
21,GTTTTATTTTCAATGTGTACTTATTATTTGATATAC [XGTACX_site6402],9.59
22,GATCCATTATTGATCCGTACTTATTCATGTTATATA [XGTACX_site5946],9.57

# From the supplement of paper PMC11417369
